Test results reported in PubChem BioAssay (NCI).
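Values below derive from 48-hour exposures of cells grown in 96-well plates, with endpoints linearly interpolated between the two concentrations bracketing the appropriate inhibition level. At the GI50, growth is halved.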 Not every entry of the source has a single result; some have several. The other results are left out here. The source may hold further records. For some of these results: Records of one sample usually come from different ranges of test concentrations, not given here; some values may only mark the edge of a range.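 TGI is the concentration that stops growth completely.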 For some of these results: Results that share an entry repeat one measurement in other runs, samples, wells, individuals or studies. Brackets tell where a record comes from. The letters are not those of the source and start again with each entry. *1 amine or outer side, *2 acyl side, *3 side chain or, on linkers, in order; H or OH if unused. Where a SMILES comes first, the peptide text is derived from it. Bridges are numbered along the chain shown (N, C = ends). Roman numbers before positions name the chains, in order. [ ]: non-standard residue; d: D form. Actinocin(1to9) = Cc1c2oc3c(C)ccc(C(=O)[*:2])c3nc-2c(C(=O)[*:1])c(N)c1=O; NMeV = CN[CH](C(=O)O)C(C)C; Sar = CNCC(=O)O

Columns and labels:
Test in all cases: NCI tumour cell line growth inhibition, 48 h
HCT-116 colon = test system: HCT-116 colon
HOP-62 NSCLC = test system: HOP-62 NSCLC
NCI-H460 lung = test system: NCI-H460 lung
SF-295 CNS = test system: SF-295 CNS
A549 NSCLC = test system: A549 NSCLC
ACHN renal = test system: ACHN renal
BT-549 breast = test system: BT-549 breast
CCRF-CEM leukemia = test system: CCRF-CEM leukemia
COLO 205 colon = test system: COLO 205 colon
DU-145 prostate = test system: DU-145 prostate
EKVX NSCLC = test system: EKVX NSCLC
HCT-15 colon = test system: HCT-15 colon
HOP-92 NSCLC = test system: HOP-92 NSCLC
K-562 leukemia = test system: K-562 leukemia
KM12 colon = test system: KM12 colon
MOLT-4 leukemia = test system: MOLT-4 leukemia
OVCAR-5 ovarian = test system: OVCAR-5 ovarian
SF-268 CNS = test system: SF-268 CNS
SK-MEL-2 melanoma = test system: SK-MEL-2 melanoma
SK-MEL-28 melanoma = test system: SK-MEL-28 melanoma
CAKI-1 renal = test system: CAKI-1 renal
HCC-2998 colon = test system: HCC-2998 colon
LOX IMVI melanoma = test system: LOX IMVI melanoma
NCI-H522 lung = test system: NCI-H522 lung
OVCAR-8 ovarian = test system: OVCAR-8 ovarian
RPMI-8226 leukemia = test system: RPMI-8226 leukemia
SK-OV-3 ovarian = test system: SK-OV-3 ovarian
U251 CNS = test system: U251 CNS

SMILES: CCC(C)C1NC(=O)C(NC(=O)c2c3nc4c(C(=O)NC5C(=O)NC(C(C)CC)C(=O)N6CCCC6C(=O)N(C)CC(=O)N(C)C(C(C)C)C(=O)OC5C)ccc(C)c4oc-3c(C)c(=O)c2N)C(C)OC(=O)C(C(C)C)N(C)C(=O)CN(C)C(=O)C2CCCN2C1=O (centres undefined) (I: TIP[Sar][NMeV] / II: TIP[Sar][NMeV]; ester I:1-I:C, II:1-II:C; linker I:N-II:N via Actinocin(1to9); configuration not given here)
- TGI (HCT-116 colon): 163 nM and 10.9 µM
- TGI (HOP-62 NSCLC): 21.4 nM and 17.1 µM
- TGI (NCI-H460 lung): 121 nM and 12.2 µM
- TGI (SF-295 CNS): 27.7 nM and 523 nM

SMILES: O=[N+]([O-])c1cccc2nc3ccccc3c(NCCCn3ccnc3[N+](=O)[O-])c12
- TGI (A549 NSCLC): 0.618 nM and 10.5 nM
- TGI (ACHN renal): 0.785 nM and > 100 µM
- TGI (BT-549 breast): 0.877 nM and 48 nM
- TGI (CCRF-CEM leukemia): 281 nM and > 100 µM
- TGI (COLO 205 colon): 0.544 nM and 15.3 nM
- TGI (DU-145 prostate): 0.541 nM and 14.1 nM
- TGI (EKVX NSCLC): 4.67 nM and > 100 µM
- TGI (HCT-15 colon): 2.55 nM and 332 nM
- TGI (HOP-92 NSCLC): 0.894 nM and 13.6 nM
- TGI (K-562 leukemia): 0.304 nM and > 100 µM
- TGI (KM12 colon): 1.56 nM and 53.9 nM
- TGI (MOLT-4 leukemia): 17.8 nM and 10.8 µM
- TGI (OVCAR-5 ovarian): 1.42 nM and 45.5 nM
- TGI (SF-268 CNS): 224 nM and > 100 µM
- TGI (SK-MEL-2 melanoma): 0.698 nM and > 100 µM
- TGI (SK-MEL-28 melanoma): 15.3 nM and > 100 µM

SMILES: CN(c1ncccc1CNc1nc(Nc2ccc3c(c2)CC(=O)N3)ncc1C(F)(F)F)S(C)(=O)=O
- TGI (CCRF-CEM leukemia): > 80.3 µM [sample A, mean of 2 tests] and 7.81 µM [sample B, 1 test]

SMILES: COc1cc2c(cc1OC)[C@@H](Nc1ccc(C#N)cc1)C1COC(=O)[C@@H]1C2c1cc(OC)c(O)c(OC)c1 (some centres undefined)
- TGI (CAKI-1 renal): 95 µM and 2.66 µM
- TGI (HCC-2998 colon): 2.21 µM and 34.3 µM
- TGI (HCT-15 colon): 2.64 µM and > 100 µM
- GI50 (K-562 leukemia): 109 nM and 1.15 µM
- TGI (K-562 leukemia): 553 nM and 21.5 µM
- TGI (KM12 colon): 6.97 µM and > 100 µM
- TGI (LOX IMVI melanoma): 8.33 µM and > 100 µM
- TGI (NCI-H522 lung): 6.21 µM and 89.9 µM
- TGI (OVCAR-8 ovarian): 2.92 µM and > 100 µM
- GI50 (RPMI-8226 leukemia): < 9.5 nM and 117 nM
- TGI (SF-268 CNS): 4.34 µM and > 100 µM
- TGI (SK-OV-3 ovarian): 782 nM and > 100 µM
- TGI (U251 CNS): 558 nM and > 100 µM
